Source: PubChem BioAssay AID493208 (National Center for Advancing Translational Sciences (NCATS), 2011)
About 340 (0.77%) of roughly 44,000 compounds were called active. Roughly 5% stayed inconclusive and do not appear here. Calls come from the whole dose curve; as a rule, active = well fitted inhibition curve with a large enough effect; inconclusive = small, poorly fitted or top-dose-only effect; inactive = flat fitted curve, though single readings scatter. This is one part of the list.

test: Acumen qHTS Assay for Inhibitors of the mTORC1 Signaling Pathway in MEF (Tsc2-/-, p53-/-) Cells: Sytravon; conditions: phospho-rpS6 immunofluorescence/PI, 24 h; series mostly up to 38.3 µM; activity change, negative = inhibition: at the top concentration; note: nearly all actives have a fitted effect of over 50% in size;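 for activity change, negative = inhibition: plate controls were DMSO for no effect and rapamycin for full effect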
Procedure, shortened: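 Immunofluorescence of rpS6 phosphorylation in Tsc2-/-, p53-/- MEFs after 24 h compound exposure, normalized to propidium iodide signal. Activity is expressed as % positive cells, thresholded with 7.5 nM rapamycin.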
Potency is the fitted concentration of half-maximal effect.

Activity change, negative = inhibition, inactive:
CCOc1nc(NC(=O)NS(=O)(=O)Oc2cccc(Cl)c2)nc(-c2ccccc2)n1 -13.6%
Cc1cc(C)cc(NC(=O)C2CCN(C(=O)c3cnn(-c4ccccc4)c3-n3cccc3)CC2)c1 -3.27%
CC1CCn2c(nc3cc(C(=O)NCc4ccc(F)cc4)ccc32)C1 (stereo unspecified) 9.92%
O=C(Nc1ccc(F)c(F)c1)c1cc(S(=O)(=O)NCc2ccc3c(c2)OCO3)ccc1F -10.9%
CCOC(=O)c1nn2c(C(F)(F)F)cc(-c3ccc(C)cc3)nc2c1Cl -16.1%
CCCCC(=O)Nc1nnc(SCc2cc(=O)n3cc(C)ccc3n2)s1 6.58%
COc1ccc(-c2c(C#N)c(SCC(=O)Nc3ccc(C)cc3)nc(C)c2C(=O)Nc2ccccc2)cc1 -2.51%
Cc1ccc(CNC(=O)CSc2nc(=O)n(Cc3ccco3)c3c2CCC3)cc1 -5.89%
COc1ccc(C2=NC3(CCCCCC3)N(CC(=O)Nc3cccc(Cl)c3)C2=O)cc1 -0.518%
COc1cccc(CNC(=O)CN2CCCN(Cc3ccccc3)S2(=O)=O)c1 3.27%
Cc1ccn2c(Nc3ccc4c(c3)OCO4)c(-c3ccc(Cl)cc3)nc2c1 -16.7%
COc1cccc(NC(=O)Cn2c(=O)ccc3cc(S(=O)(=O)N4CCC(C)CC4)ccc32)c1 1.87%
CCSc1nc2c([nH]c3ccccc32)c(=O)n1-c1cccc(OC)c1 -3.02%
COc1ccc(Cl)cc1S(=O)(=O)N1CCN(CC(=O)Nc2ccccc2C(F)(F)F)CC1 4.71%
CCOc1ccc(-n2nc3ccc(NC(=O)c4cccc(F)c4)cc3n2)cc1 0.315%
CCOc1ccc(-c2nnc(SCC(=O)NC(C)CC)nc2-c2ccc(OCC)c(OC)c2)cc1OC (stereo unspecified) 1.31%
COc1ccc(Cn2cc(C(=O)c3ccc(F)cc3)c(=O)c3cc4c(cc32)OCCO4)cc1 3.2%
Cc1nn(C)c(C)c1CCNC(=O)Nc1cccc(Cl)c1C 3.37%
COc1cc(C(=O)Nc2cccc(OCc3cc(=O)n4cc(C)sc4n3)c2)cc(OC)c1OC -7.83%
CC(=O)Nc1nonc1-c1nnc(SCC(=O)Nc2cccc(C)c2C)n1-c1ccccc1 -2.2%
COc1ccc(-c2nc3ccccc3o2)cc1NC(=O)c1ccc(-c2ccc(Br)cc2)o1 -2.84%
CC1CCN(C(=O)Cn2cc(SCC(=O)Nc3ccccc3C(F)(F)F)c3ccccc32)CC1 -6%
COc1ccc(-c2nc(CCNC(=O)c3c(F)cccc3Cl)cs2)cc1 -18.9%
CCCCc1nn2c(=O)cc(COC(=O)c3ccco3)nc2s1 19.3%
CCCCNc1ccc(-c2nc(-c3ccncc3)no2)cc1[N+](=O)[O-] 0%
CCC(C(=O)Nc1ccccc1)n1nc(-c2cc(C)ccc2C)ccc1=O (stereo unspecified) -8.3%
Cc1cccc(NC(=O)C2CCCN(S(=O)(=O)c3c(C)n[nH]c3C)C2)c1 (stereo unspecified) -7.31%
CCN1C(=O)N(c2ccc(C(C)=O)cc2)S(=O)(=O)c2ccccc21 -1.6%
CSc1ccc(CCNC(=O)Cn2ncn3c(cc4ccccc43)c2=O)cc1 0.1%
CCOc1ccc(-n2c(=O)c3c(C)c(C)sc3n(CC(=O)Nc3ccc(CC)cc3)c2=O)cc1 2.1%
Cc1ccccc1Nc1c(-c2cccnc2)nc2cccc(C)n12 5.27%
Cn1nc(-c2ccc(OCC(=O)Nc3ccc(Cl)cc3)cc2)c2ccccc2c1=O -10.5%
CCN(C(=O)c1cc2c(=O)n(CC)c3ccccc3c2s1)c1cccc(C(F)(F)F)c1 -9.4%
COc1ccc(Br)cc1CNC(=O)c1cnc2sc(N3CCCCCC3)nn2c1=O 10.9%
CCOC(=O)c1sc(NC(=O)c2nc3nc(C)cc(C(F)F)n3n2)c(C(=O)OC(C)C)c1C -0.0648%
COc1ccccc1C(=O)Nc1ccccc1C(=O)OCc1cc(=O)n2ccsc2n1 10.7%
CCCOc1ccc(CNC(=O)CCCN2C(=O)CSc3c2c(C)nn3-c2ccccc2)cc1 -9.27%
COc1ccc(C2(N3CCN(c4cc(C)ccc4C)CC3)C(=O)c3ccccc3C2=O)cc1 2.04%
CCOc1ccccc1NC(=O)CSc1nc2cc(OC)c(OC)cc2c2nc(CCn3c(C)nc4ccccc43)nn12 1.67%
CCCN(CCC)C(=O)Cn1c(SCc2cccc(F)c2)nc2cccnc21 0.34%
N#Cc1cccc(NC(=O)C2CCN(S(=O)(=O)c3ccc4c(c3)CCCN4C(=O)C3CCC3)CC2)c1 -5.42%
Cc1nc(-c2ccc(F)cc2)sc1CCNC(=O)c1ccccc1C(F)(F)F -13.5%
Cc1ccc2oc(C(=O)NCC(c3ccc(Cl)cc3)N3CCOCC3)c(C)c2c1 (stereo unspecified) -0.164%
Cc1ccc(CNC(=O)c2cc3c(=O)n4cccc(C)c4nc3s2)cc1 -19%
COc1ccccc1NC(=O)CN1C(=O)C(C)(C)c2ccccc21 0.596%
Cc1ccc(CNC(=O)CN2C(=O)C3CCCCN3c3ccc(C(=O)N(C)C)cc32)cc1 (stereo unspecified) -1.77%
CC1=C(C(=O)Nc2ccccc2C)C(c2sccc2C)n2ncnc2N1 (stereo unspecified) -4.01%
Cc1ccc(S(N)(=O)=O)cc1NC(=O)c1c(-c2c(Cl)cccc2Cl)noc1C -1.58%
CCN(CC)CCNC(=O)CN1C(=O)CSc2ccc(S(=O)(=O)N3CCOCC3)cc21 2.72%
Cc1ccccc1CSc1nc2c([nH]c3ccccc32)c(=O)n1-c1ccccc1 -2.33%
CCc1nnc2c(NCc3ccccc3)nc3ccccc3n12 1.21%
Cc1ccc(C(=O)N2CCN(c3ccccc3)CC2)cc1NC(=O)c1nsc2ccccc12 -2.62%
O=C(NCCCN1CCN(c2ccccc2F)CC1)c1ccc2nc(Cc3ccccc3)oc2c1 -2.22%
CC(C)c1ccc(NC(=O)C2CCCN(S(=O)(=O)c3ccc4[nH]c(=O)oc4c3)C2)cc1 (stereo unspecified) -8.14%
Cc1ccc(CNC(=O)CN2N=C(c3ccc(C)cc3)CCC2=O)cc1 -13.3%
CCCN(CCC)CCCNC(=O)Cn1ncn2c(cc3sc(CC)cc32)c1=O -0.145%
CCN(CC)S(=O)(=O)c1ccc2c(c1)c(=O)c(C(=O)N1CCN(c3ccc(OC)cc3)CC1)cn2C 1.66%
CCc1ccccc1NC(=O)c1nc2nc(C)cc(C(F)F)n2n1 0.805%
Cc1cccc(-c2nnc(SCC(=O)Nc3ccc(C)c(C)c3)o2)c1 -10%
CCCS(=O)(=O)c1c(S(=O)(=O)CCC)c2cc(C(C)(C)C)ccn2c1C(=O)c1ccc(C)cc1 0.198%

Potency, active:
N#Cc1c(C(F)(F)F)cc(-c2cccs2)nc1SCC(=O)Nc1cccc(Br)c1 11.7 µM
